Measurements: PubChem BioAssay AID686970 (National Center for Advancing Translational Sciences (NCATS), 2013)
The whole screen tested about 360,000 compounds, of which about 6,000 (1.7%) were called active. The shares of active, inactive and inconclusive entries below differ from those in the screen. Calls come from the whole dose curve; as a rule, active = well fitted cell-killing curve with a large enough effect; inconclusive = small, poorly fitted or top-dose-only effect, or effect the other way; inactive = flat fitted curve, though single readings scatter. No potency is given beside an inconclusive call; the fits are too rough.
Potency is the fitted concentration of half-maximal effect; tags give direction and shape of the fitted curve.

Assay: qHTS for induction of synthetic lethality in tumor cells producing 2HG: qHTS for the HT-1080-NT fibrosarcoma cell line;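 note: NT is the 2HG producing partner of a matched IDH1 knockdown line; nearly all actives have a fitted effect of over 55% in size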;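 for activity, negative = less viability: 0% = DMSO-treated cells and -100% = media-only wells without cells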
Details: HT-1080-NT fibrosarcoma viability, CellTiter-Glo ATP luminescence, 48 h; activity, negative = less viability: at 46.1 µM (top of the series) unless noted
Summary of the method: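 Fibrosarcoma NT cells, 750 per well in 5% FBS RPMI, were exposed to compound for 48 hours. Viability: CellTiter-Glo luminescence.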
For `Cc1nn(-c2ccccn2)c2c1C(=O)CC(C)(C)C2Br` (configuration not stated), the Potency was inconclusive [cytotoxic, partial curve]. With `Cc1cccc(Cn2c(=O)n(-c3ccc(CC(=O)NCc4ccco4)cc3)c(=O)c3sccc32)c1` the Potency was inconclusive [cytotoxic, single point]. In the case of `CC(=O)c1ccc(NC(=O)CCS(=O)(=O)c2ccc3c(c2)n(C)c(=O)c(=O)n3C)cc1`, the “activity, negative = less viability” value is reported as inactive: 15.2%. For `Cc1c(C(=O)OCc2nc3ccsc3c(=O)[nH]2)oc2ccccc12`, the “activity, negative = less viability” value was inactive: 12%. With `Clc1ccccc1Cn1nnc2c(N3CCOCC3)nc(C3CC3)nc21` the “activity, negative = less viability” value was inactive: -0.465%. With `Cn1c2ccccc2c2c(C(=O)N3CCN(c4ccccc4)CC3)cn(C3CCCC3)c(=O)c21` the Potency was inconclusive [cytotoxic, single point]. With `Cc1cc(N)n(-c2cc(C)c3ccccc3n2)n1` the Potency was inconclusive [cytotoxic, single point]. For `Cc1nc(Cl)nc(N(C)c2ccccc2)c1[N+](=O)[O-]`, the Potency was inconclusive [cytotoxic, single point]. For `CCC1=NN(C(=O)c2ccc([N+](=O)[O-])cc2)C(O)(c2ccccc2)C1` (configuration not stated), the Potency was inconclusive [cytotoxic, single point]. With `COc1ccc(CN2CCn3ncc(C(=O)Nc4cc(C)cc(C)c4)c3C2=O)cc1` the Potency was inconclusive [cytotoxic, single point]. In the case of `COC(=O)c1ccc2c(=O)n(Cc3ccc(C(=O)NCCCN4CCC(C)CC4)cc3)c(=S)[nH]c2c1`, the Potency is reported as inconclusive [cytotoxic, single point]. For `CC(C)(C)[C@H]1COC(=O)[C@H](NC(=O)OCC2c3ccccc3-c3ccccc32)C/C=C\C[C@@H](CC(=O)N(CCO)Cc2ccccc2)C(=O)N1`, the Potency was inconclusive [cytotoxic, single point]. With `CC(C)COc1ccc(CN=C(N)N=C(N)N)cc1Cl` the Potency was inconclusive [cytotoxic, single point]. For `Cc1ccccc1-c1cc2nc(Nc3ccc(F)cc3)n(C)c(=O)c2s1`, the Potency was inconclusive [cytotoxic, single point]. With `COc1cc(/C=C(/C#N)C(=O)Nc2ccc(C)cc2)ccc1Oc1nc(Cl)ncc1F` the Potency was inconclusive [cytotoxic, single point]. For `CC(C)[C@@H]1CC[C@@H](C)c2c(-c3ccccc3)n[nH]c21`, the Potency was inconclusive [cytotoxic, single point]. In the case of `O=C(Cc1ccc(Cl)cc1)Nc1cccc(-c2nnc(-c3ccco3)o2)c1`, the Potency is reported as inconclusive [cytotoxic, partial curve]. In the case of `CN(C)NC(=S)NC1CCS(=O)(=O)C1` (configuration not stated), the “activity, negative = less viability” value is reported as inactive: 13.9%. For `COc1ccc(C(=O)N/C(N)=N/c2nc3ccccc3o2)cc1`, the Potency was inconclusive [cytotoxic, single point]. With `O=C(COc1ccc(S(=O)(=O)N2CCOCC2)cc1)Nc1ccc(Cl)c(C(F)(F)F)c1` the Potency was inconclusive [cytotoxic, single point]. With `CNc1oc(-c2ccc(Cl)cc2)nc1P(=O)(c1ccccc1)c1ccccc1` the Potency was inconclusive [cytotoxic, single point]. For `CC1(C(=O)NCc2cccc3ccccc23)CCN1Cc1ccc2ccccc2c1` (configuration not stated), the activity, negative = less viability was inconclusive: -68.7%. For `CC1(C)CC2CC(C)(CN2C(=O)c2cc(-c3ccc(O)cc3)on2)C1` (configuration not stated), the Potency was inconclusive [cytotoxic, single point]. For `Cc1noc(C)c1CSc1nc2ccccc2c(=O)n1-c1ccc(Cl)cc1`, the Potency was active: 10 µM. With `CCOc1cc(/C=C\c2[nH]c(=O)[nH]c(=O)c2[N+](=O)[O-])ccc1OC(C)CC` (configuration not stated) the Potency was active: 10 µM. With `CC(NC(=O)c1ccc([N+](=O)[O-])o1)C12CC3CC(CC(C3)C1)C2` (configuration not stated) the Potency was active: 18.4 µM. With `COc1ccccc1Cc1c(-c2ccco2)nc2cc(C)c(Br)c(C)n12` the Potency was inconclusive [cytotoxic, single point]. For `Cc1ccc(Cn2c(N)c(S(=O)(=O)c3cccs3)c3nc4ccccc4nc32)cc1`, the Potency was inconclusive [cytotoxic, single point]. For `CCOC(=O)c1cc(-c2ccc(/C=C3/C(=O)N(c4ccc(C(=O)O)cc4)N=C3C)o2)ccc1Cl`, the Potency was inconclusive [cytotoxic, single point]. With `CCOC(=O)c1c(C)[nH]c(C=O)c1Cc1cccc(Cl)c1` the Potency was inconclusive [cytotoxic, single point]. With `O=C(CN(Cc1ccco1)C(=O)c1ccccc1)Nc1ccc(Cl)c(Cl)c1` the Potency was inconclusive [cytotoxic, single point]. In the case of `COc1cc2c(C(=O)N3CCN(c4ccccc4)CC3)c(C)oc2cc1Br`, the Potency is reported as inconclusive [cytotoxic, single point]. For `O=C(/C=C/c1ccc(-c2ccccc2[N+](=O)[O-])o1)c1ccc(Br)cc1`, the Potency was inconclusive [cytotoxic, single point]. In the case of `COc1ccc(-n2c(C)cc(C(=O)Cn3nnc4ccccc4c3=O)c2C)cc1`, the Potency is reported as inconclusive [cytotoxic, single point]. For `CCNC(=O)C(=O)NCc1ccncc1`, the “activity, negative = less viability” value was inactive: 7.98%. In the case of `C#Cc1cccc(Nc2nc(NC(C)C)nc3ccsc23)c1`, the Potency is reported as inconclusive [cytotoxic, single point]. With `CC(O)(c1ccc(F)c(F)c1)c1nc(/C=C/c2ccc(C(F)(F)F)cc2)cs1` (configuration not stated) the Potency was inconclusive [cytotoxic, single point]. In the case of `CCc1c(-c2cccc(OC)c2)ncn1Cc1cccc(-c2ccccc2)c1`, the Potency is reported as active: 7.31 µM. With `COc1ccc(C(=O)OCC(=O)N2c3ccccc3CC2C)cc1S(=O)(=O)N1CCOCC1` (configuration not stated) the “activity, negative = less viability” value was inactive: 7.47%. In the case of `COc1ccccc1NS(=O)(=O)c1ccc(C(=O)N2CCCCCC2)cc1`, the “activity, negative = less viability” value is reported as inactive: -3.68%. For `COc1cccc(-c2cnc(C(O)c3cc(C)ccc3C)[nH]2)c1` (configuration not stated), the “activity, negative = less viability” value was inactive: 17.2%. In the case of `CC(NC1=CC(=O)c2cccnc2C1=O)C(O)c1ccccc1` (configuration not stated), the Potency is reported as active: 18.4 µM.
